These are yes or no findings as the source states them, for the method shown. Some entries that bind do so weakly or less than the wild type.
How the values were obtained:
Experiment in all cases: two-hybrid; matrix-based yeast two-hybrid, GAL4-AD and GAL4-BD fusions (pDEST22, pDEST32), in duplicate, at least two reporter genes; medium lacking Leu, Trp and His with 1 mM 3-amino-1,2,4-triazole, growth scored after 4 days at 20°C
[1] = target: APETALA1 (Arabidopsis thaliana) (UniProt P35631)
[2] = target: … (Arabidopsis thaliana) (UniProt Q38836)
[3] = target: AGL17 (Arabidopsis thaliana) (UniProt Q38840)
[4] = target: AGAMOUS (Arabidopsis thaliana) (UniProt P17839)
[5] = target: SEP1 (Arabidopsis thaliana) (UniProt P29382)
[6] = target: AGL16 (Arabidopsis thaliana) (UniProt A2RVQ5)
[7] = target: SEP2 (Arabidopsis thaliana) (UniProt P29384)
[8] = target: SUPPRESSOR OF OVEREXPRESSION OF CO 1 (Arabidopsis thaliana) (UniProt O64645)
[9] = target: FRUITFUL (Arabidopsis thaliana) (UniProt Q38876)
[10] = target: T1, AGL15 (Arabidopsis thaliana) (UniProt Q38847)
T1 sequence: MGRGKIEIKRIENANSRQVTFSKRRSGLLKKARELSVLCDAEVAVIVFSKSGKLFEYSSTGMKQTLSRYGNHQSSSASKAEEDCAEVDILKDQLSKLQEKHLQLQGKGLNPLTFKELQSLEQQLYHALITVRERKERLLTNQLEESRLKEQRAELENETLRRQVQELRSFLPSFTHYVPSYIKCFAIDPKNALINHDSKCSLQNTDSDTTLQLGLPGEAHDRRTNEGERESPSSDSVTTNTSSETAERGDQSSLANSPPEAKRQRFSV

The chains behind the UniProt entries cited, without tags or fusion partners. Where a name states a change or a piece, a line headed by the entry shows the natural chain unless it says otherwise.
UniProt P35631: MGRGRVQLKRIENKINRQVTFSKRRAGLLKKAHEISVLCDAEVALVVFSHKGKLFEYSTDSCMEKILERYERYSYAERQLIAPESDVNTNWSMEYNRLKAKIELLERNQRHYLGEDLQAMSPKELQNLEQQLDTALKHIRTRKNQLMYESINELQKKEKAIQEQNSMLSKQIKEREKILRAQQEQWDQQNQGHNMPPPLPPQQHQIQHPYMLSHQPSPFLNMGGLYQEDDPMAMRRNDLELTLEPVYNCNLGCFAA
UniProt Q38836: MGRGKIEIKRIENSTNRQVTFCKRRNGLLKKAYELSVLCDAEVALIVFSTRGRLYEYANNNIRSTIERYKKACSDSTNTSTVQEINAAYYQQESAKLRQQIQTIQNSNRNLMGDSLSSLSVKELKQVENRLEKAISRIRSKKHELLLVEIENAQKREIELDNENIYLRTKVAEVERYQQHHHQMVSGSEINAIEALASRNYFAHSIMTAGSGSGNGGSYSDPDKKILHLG
UniProt Q38840: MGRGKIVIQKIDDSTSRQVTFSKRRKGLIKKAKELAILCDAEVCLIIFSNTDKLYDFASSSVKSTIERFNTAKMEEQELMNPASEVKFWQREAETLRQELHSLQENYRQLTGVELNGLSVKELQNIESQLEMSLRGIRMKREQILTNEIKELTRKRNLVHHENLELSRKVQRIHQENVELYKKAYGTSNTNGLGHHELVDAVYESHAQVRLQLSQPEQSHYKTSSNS
UniProt P17839: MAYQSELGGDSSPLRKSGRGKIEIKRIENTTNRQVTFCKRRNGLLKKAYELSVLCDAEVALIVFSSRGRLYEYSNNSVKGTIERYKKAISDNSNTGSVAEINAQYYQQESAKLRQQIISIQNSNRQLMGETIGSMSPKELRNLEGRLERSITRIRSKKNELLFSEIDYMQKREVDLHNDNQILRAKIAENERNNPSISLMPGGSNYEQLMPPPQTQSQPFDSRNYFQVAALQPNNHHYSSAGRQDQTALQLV
UniProt P29382: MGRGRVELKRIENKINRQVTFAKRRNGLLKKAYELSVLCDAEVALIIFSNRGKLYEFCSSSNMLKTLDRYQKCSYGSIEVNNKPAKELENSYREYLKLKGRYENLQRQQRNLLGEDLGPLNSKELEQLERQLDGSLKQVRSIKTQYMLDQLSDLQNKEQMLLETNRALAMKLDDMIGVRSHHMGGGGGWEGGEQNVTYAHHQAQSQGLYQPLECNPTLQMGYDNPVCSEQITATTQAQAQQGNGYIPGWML
UniProt A2RVQ5: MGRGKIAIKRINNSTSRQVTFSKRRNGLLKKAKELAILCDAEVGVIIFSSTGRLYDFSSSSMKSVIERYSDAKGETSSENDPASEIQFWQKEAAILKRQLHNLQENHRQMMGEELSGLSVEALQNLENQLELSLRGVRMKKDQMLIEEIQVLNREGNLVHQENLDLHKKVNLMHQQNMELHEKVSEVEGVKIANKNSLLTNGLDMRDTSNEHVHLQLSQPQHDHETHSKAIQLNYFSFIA
UniProt P29384: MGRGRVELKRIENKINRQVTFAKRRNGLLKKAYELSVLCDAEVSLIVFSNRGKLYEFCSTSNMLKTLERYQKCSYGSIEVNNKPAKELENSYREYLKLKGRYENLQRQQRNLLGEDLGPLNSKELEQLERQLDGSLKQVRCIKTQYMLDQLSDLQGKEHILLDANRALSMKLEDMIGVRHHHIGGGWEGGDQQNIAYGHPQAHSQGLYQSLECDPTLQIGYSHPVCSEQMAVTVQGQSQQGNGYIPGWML
UniProt O64645: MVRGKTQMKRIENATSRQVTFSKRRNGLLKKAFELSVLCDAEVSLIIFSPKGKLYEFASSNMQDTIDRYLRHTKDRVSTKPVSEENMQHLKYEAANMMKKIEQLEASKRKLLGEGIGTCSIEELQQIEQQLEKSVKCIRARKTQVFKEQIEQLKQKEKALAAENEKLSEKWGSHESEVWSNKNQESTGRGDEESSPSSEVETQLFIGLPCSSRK
UniProt Q38876: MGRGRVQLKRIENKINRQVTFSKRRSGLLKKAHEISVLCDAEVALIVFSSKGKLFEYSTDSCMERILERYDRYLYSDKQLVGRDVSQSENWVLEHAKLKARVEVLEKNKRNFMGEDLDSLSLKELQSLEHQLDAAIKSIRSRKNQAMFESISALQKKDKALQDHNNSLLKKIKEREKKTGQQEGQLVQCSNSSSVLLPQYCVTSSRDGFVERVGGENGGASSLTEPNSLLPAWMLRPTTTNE
UniProt O22456: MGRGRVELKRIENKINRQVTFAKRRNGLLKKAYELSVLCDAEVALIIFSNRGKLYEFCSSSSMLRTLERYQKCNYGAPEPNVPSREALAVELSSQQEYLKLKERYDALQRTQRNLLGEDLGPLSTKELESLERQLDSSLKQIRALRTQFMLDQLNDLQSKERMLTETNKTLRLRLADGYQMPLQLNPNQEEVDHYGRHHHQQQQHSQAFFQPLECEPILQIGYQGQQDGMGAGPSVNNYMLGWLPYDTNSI
UniProt Q38838: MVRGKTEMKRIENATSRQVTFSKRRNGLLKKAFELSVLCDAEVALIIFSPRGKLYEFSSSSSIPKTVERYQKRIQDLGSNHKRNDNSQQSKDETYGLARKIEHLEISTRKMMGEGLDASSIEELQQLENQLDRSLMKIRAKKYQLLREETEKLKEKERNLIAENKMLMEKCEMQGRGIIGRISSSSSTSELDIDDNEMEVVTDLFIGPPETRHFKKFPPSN
UniProt Q39081: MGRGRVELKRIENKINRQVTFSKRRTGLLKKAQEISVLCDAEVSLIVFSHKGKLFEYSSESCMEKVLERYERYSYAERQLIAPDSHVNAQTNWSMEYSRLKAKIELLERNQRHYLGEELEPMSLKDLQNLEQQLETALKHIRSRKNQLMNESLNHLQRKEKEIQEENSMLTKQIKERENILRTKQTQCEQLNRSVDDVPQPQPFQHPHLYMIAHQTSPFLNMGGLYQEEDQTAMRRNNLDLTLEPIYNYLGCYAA
UniProt P29385: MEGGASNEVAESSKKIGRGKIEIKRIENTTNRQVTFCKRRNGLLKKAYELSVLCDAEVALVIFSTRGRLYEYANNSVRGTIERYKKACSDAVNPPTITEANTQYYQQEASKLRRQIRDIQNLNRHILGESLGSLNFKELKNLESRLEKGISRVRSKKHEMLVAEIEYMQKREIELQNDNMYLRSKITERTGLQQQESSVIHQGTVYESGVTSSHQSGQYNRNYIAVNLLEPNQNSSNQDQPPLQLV

[11] = target: SEP3 (Arabidopsis thaliana) (UniProt O22456)
[12] = target: AGAMOUS LIKE14 (Arabidopsis thaliana) (UniProt Q38838)
[13] = target: CAULIFLOWER (Arabidopsis thaliana) (UniProt Q39081)
[14] = target: …OOF2 (Arabidopsis thaliana) (UniProt P29385)
[15] = target: T2, XAL1 (Arabidopsis thaliana) (UniProt Q38841)
T2 sequence: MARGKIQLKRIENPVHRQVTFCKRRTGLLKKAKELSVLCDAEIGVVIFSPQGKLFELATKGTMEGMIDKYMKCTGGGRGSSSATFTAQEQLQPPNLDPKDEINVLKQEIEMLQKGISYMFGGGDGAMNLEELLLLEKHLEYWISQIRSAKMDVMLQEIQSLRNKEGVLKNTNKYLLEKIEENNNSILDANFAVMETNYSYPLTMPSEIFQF

Row | Substance | binding [1] | binding [2] | binding [3] | binding [4] | binding [5] | binding [6] | binding [7] | binding [8] | binding [9] | binding [10] | binding [11] | binding [12] | binding [13] | binding [14] | binding [15]
1 | CAULIFLOWER (from UniProt Q39081 1-255) | no binding | no binding | no binding | no binding | no binding | no binding | no binding | binds | no binding | no binding | no binding | no binding | no binding | no binding | no binding
2 | SUPPRESSOR OF OVEREXPRESSION OF CO 1 (from UniProt O64645 1-214) | binds | no binding | binds | no binding |  | binds | binds | binds |  | binds | binds | binds | binds | binds | binds
3 | AP1 I66V (from UniProt P35631 1-256) | no binding | no binding | no binding | no binding | binds | binds | binds | binds | no binding | no binding | binds | no binding | no binding | no binding | no binding
4 | SVP1 EFCSSS56-61D (from UniProt Q9FVC1 1-240) | no binding | no binding | no binding | no binding | no binding | no binding | no binding | binds | no binding | no binding | no binding | no binding | no binding | no binding | no binding
5 | SVP1 SS227-228MF (from UniProt Q9FVC1 1-240) | binds | no binding | binds | binds | binds | binds | binds | binds | binds | no binding | binds | binds | binds | binds | no binding
6 | SVP1 S61R (from UniProt Q9FVC1 1-240) | binds | no binding | no binding | binds | binds | no binding | binds | binds | no binding | no binding | binds | no binding | no binding | no binding | no binding
7 | AG Q126H (from UniProt P17839 1-252) | no binding | no binding | no binding | no binding | binds | binds | binds | no binding | no binding | no binding | binds | no binding | no binding | no binding | no binding
8 | AP1 Y148N (from UniProt P35631 1-256) | binds | no binding | no binding | no binding | binds | binds | binds | binds | binds | no binding | binds | no binding | no binding | no binding | no binding
9 | AGAMOUS (from UniProt P17839 1-252) | no binding | no binding | no binding |  | binds | binds | binds | no binding |  | binds | binds | no binding | no binding |  | no binding
10 | APETALA1 (from UniProt P35631 1-256) |  | no binding | no binding | no binding | binds | binds | no binding | binds | no binding | binds | binds | no binding | no binding | no binding | no binding
11 | SHORT … PHASE (SVP1) (from UniProt Q9FVC1 1-240) | binds | no binding | binds | binds | binds | binds | binds | binds |  | no binding | binds |  | no binding | binds | no binding

— publication PMC2991254
